# According to ChEMBL document CHEMBL4888484, “Replenishing the malaria drug discovery pipeline: Screening and hit evaluation of the MMV Hit Generation Library 1 (HGL1) against asexual blood stage Plasmodium falciparum ,using a nano luciferase reporter read-out” (2022):
# About 540 (0.36%) of roughly 150,000 compounds showed an effect of 50% or more. The list shows a part of the results.
# Tested on: Plasmodium falciparum
# Assay: Primary screen in NF54 nanoGlo assay, in single point, at 2uM, 72h; a lower Z score goes with more inhibition
# Assay type: functional, Erythrocyte
# Details: timepoint 72 hour
Compound,% Inhibition [%],Z score
Cc1ccc(-c2cc(C(=O)NC(C)C)cc(S(=O)(=O)N3CCOCC3)c2)s1,-4,0.52
Cn1cc(C#N)c(=O)n(C[C@H](O)COCc2ccccc2)c1=O,-11,1.44
Cc1ccc([C@@H]2Cn3nnc(C(=O)N4CCC(C(=O)NCC5CC5)CC4)c3CO2)cc1,-13,1.22
CN(Cc1ncc[nH]1)C(=O)[C@@H]1COCCN1CC(F)(F)F,3,-0.36
Cc1cc(C)cc(-n2ncc3c(=O)n(C[C@H](O)COc4ccc(C)cc4C)cnc32)c1,-9,0.89
CC(C)(C)OC(=O)NC[C@H]1CC(C(=O)Nc2ccc(CNc3ccccc3)cc2)=NO1,32,-3.65
CCN(Cc1cc(OC)ccc1-n1cccn1)[C@H]1COC[C@@H]1O,-6,1.05
O=C(CCC(=O)N1CCOC[C@@H]1CC1CC1)N1CCC(O)CC1,2,-0.24
O=C(CN1CCc2c1cccc2C(F)(F)F)N1CCNC1=O,-6,0.55
O=C(c1ccc(F)cc1)N1CCCn2c1nc1ccccc12,-8,1.04
C[C@H]1Cc2ccccc2N1CCNC(=O)c1cccc(-n2ccnn2)c1,-15,1.52
O=C(CCCN1C(=O)c2cccnc2Oc2ccccc21)NCc1ccccc1Cl,-6,0.74
CCN(CCc1noc(C2CCC2)n1)C(C)=O,-3,0.3
Cc1ccc(S(=O)(=O)c2c(NC(=O)c3ccco3)n(C3CCCCC3)c3nc4ccccc4nc23)cc1,-11,1.85
CCNC(=O)c1ccc(S(=O)(=O)NOC)cc1,2,-0.23
CCc1cc(N2CC(N(C)C)C2)nc(C)n1,-7,1.06
COC1(CNC(=O)c2cnn(CC(F)(F)F)c2)CCCCC1,-5,0.46
CCOC(=O)c1cn(Cc2cccc(F)c2)c2nc(C)ccc2c1=O,-18,1.92
O=c1[nH]c2ccccc2n2c(-c3ccc(Cl)cc3Cl)nnc12,-44,5.18
Cc1ccc(C2CC2C(=O)N2CCCN(CC(N)=O)CC2)cc1C (stereo unspecified),-10,1.89
COc1ccc(-c2cc3n(n2)CCC(=O)N3Cc2ccc(C(=O)NCCCN3CCCC3)cc2)cc1,17,-2
C[C@@]1(C(=O)NCc2ccccc2)CCC(=O)N1Cc1cccc(Cl)c1,-14,1.56
CN(C)S(=O)(=O)c1cccc(C(=O)NC2(c3ccc(Br)cc3)CCCC2)c1,-19,2.51
